In PubChem BioAssay AID651820 (National Center for Advancing Translational Sciences (NCATS), 2012):
Where “and” joins values, the source holds several entries; their conditions need not be identical. Equal entries are not always repeated. In all, about 340,000 compounds went through this assay and about 12,000 (3.5%) were called active. Inconclusive means that the source gave no clear call. Such entries were picked first, then a sample of the others. The call rests on the fitted dose curve; in most records, active means well fitted inhibition curve with a large enough effect; inconclusive means small, poorly fitted or top-dose-only effect, or another doubt; inactive means no such curve, though single readings can be large or run the other way. Potencies of inconclusive entries are doubtful fits and often do not repeat.
On the % scale 0 is the no-effect control and ±100 the full control effect; potency means the concentration at half of the fitted maximal effect; tags describe the fitted curve by direction and shape.

Assay: qHTS Assay for Inhibitors of Hepatitis C Virus (HCV)
Conditions: Huh7.5.1 HCVcc-Cre (HCVcc is cell-culture hepatitis C virus) infection, luciferase reporter, 44 h; activity change, negative = inhibition: at 41.8 µM (top of the series) unless noted
Outline: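 Luciferase read-out (15 sec integration) after a 15 min room-temperature substrate step quantifies HCVcc-Cre infection. Cells, 1,000 per well, had compound added 4 h post-plating, then virus at ~0.5 moi, and were cultured 44 h.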
In the case of `CCN(CC)S(=O)(=O)c1ccc(N2CCCCC2)c(NC(=O)c2ccncc2)c1`, the “activity change, negative = inhibition” value is reported as inactive: -29.7%. With `COCCn1c(SCC(=O)N2CCc3ccccc3C2)nc2cc(Cl)ccc2c1=O` the Potency was inconclusive: 11.2 µM [inhibitor, single point]. With `Cc1nn(CC(O)Cn2c3c(c4ccccc42)CCN(C)C3=O)c(C)c1Br` (stereo unspecified) the Potency was inconclusive: 501 nM [inhibitor, partial curve, poor fit] and inconclusive: 8.91 µM [inhibitor, partial curve, poor fit]. In the case of `CC1CCc2[nH]c3ccc(C(=O)N4CCCC(C(F)(F)F)C4)cc3c2C1` (stereo unspecified), the Potency is reported as inconclusive: 31.6 µM [inhibitor, partial curve, poor fit]. For `CC(C)NC(=O)CSc1c2c(nc3ccccc13)CCCC2`, the “activity change, negative = inhibition” value was inactive: 3.05%. In the case of `COc1ccc(-c2cnc(N)nc2-c2ccc(OCc3ccccc3)cc2O)cc1`, the Potency is reported as inconclusive: 31.6 µM [inhibitor, single point]. With `Cc1ccc(NC(=S)Nc2ccc(F)cc2)cc1C` the Potency was inconclusive: 22.4 µM [inhibitor, single point]. With `CC1(C)CC(c2nc(-c3ccc([N+](=O)[O-])cc3)cs2)CCO1` (stereo unspecified) the Potency was inconclusive: 31.6 µM [inhibitor, single point]. For `Cc1cc(NC(=O)c2ccc(N3CCCC3)c([N+](=O)[O-])c2)no1`, the “activity change, negative = inhibition” value was inactive: -12.7%. In the case of `CC(C)N(c1ccccc1)c1ccc(NC(=S)NCCN(C)C)cc1`, the Potency is reported as inconclusive: 14.1 µM [inhibitor, single point]. With `COc1cccc(-c2nc(CS(=O)(=O)CC(=O)Nc3ccc(F)cc3F)c(C)o2)c1` the Potency was active: 11.2 µM. For `COc1cccc(NC(=O)C2=COCCO2)c1`, the Potency was inconclusive: 0.708 µM [inhibitor, full curve, poor fit]. With `COc1ccc(C(=O)Nc2nc(-c3ccccn3)cs2)cc1S(=O)(=O)N1CCOCC1` the Potency was active: 11.2 µM. With `C1CCC(CNc2c3c(nc4nnnn24)CCCC3)CC1` the “activity change, negative = inhibition” value was inactive: 11.8%. In the case of `CCOc1cc(/C=C2\N=C(SC(C)C(N)=O)N(c3ccc(OC(F)F)cc3)C2=O)ccc1O` (stereo unspecified), the Potency is reported as inconclusive: 15.8 µM [inhibitor, partial curve]. For `CCCC[n+]1ccc(-c2nc3ccc([N+](=O)[O-])cc3[nH]2)cc1`, the “activity change, negative = inhibition” value was inactive: 6.36%. In the case of `COc1ccc2c(Cl)c(C(=O)NC3CCS(=O)(=O)C3)sc2c1` (stereo unspecified), the Potency is reported as inconclusive: 31.6 µM [inhibitor, single point]. For `NC(Cc1ccccc1)c1nc2ccccc2[nH]1` (stereo unspecified), the “activity change, negative = inhibition” value was inactive: 12.4%. In the case of `Nc1c(Cl)cc(-c2csc(N3CCCC3c3nc4cc(Cl)c(N5CCCCC5)cc4n3CCOCCO)n2)cc1Cl` (stereo unspecified), the Potency is reported as inconclusive: 10 µM [inhibitor, partial curve]. With `CC1Oc2cc3oc4c(O)c5c(cc4c(=O)c3c(O)c2C1(C)C)C=CC(C)(C)O5` (stereo unspecified) the Potency was active: 5.01 µM. For `CN1C(=O)/C(=C\c2ccc(Br)s2)C(=O)NC1=S`, the Potency was inconclusive: 31.6 µM [inhibitor, single point]. In the case of `O=[N+]([O-])c1ccc(NC(=S)NCCc2ccccc2)cc1`, the Potency is reported as inconclusive: 31.6 µM [inhibitor, single point]. In the case of `O=C(c1ccc([N+](=O)[O-])o1)N1CCc2ccccc21`, the Potency is reported as inconclusive: 22.4 µM [inhibitor, single point]. For `Nc1ccc(Nc2ccccc2N)cc1`, the Potency was active: 11.2 µM. For `COCCN(Cc1ccccc1)C(=O)c1cccc(S(=O)(=O)N2CCCc3ccccc32)c1`, the Potency was active: 10 µM. With `Cc1ccc(C(=O)NCCNC(=O)c2ccc(F)cc2)cn1` the “activity change, negative = inhibition” value was inactive: -6.57%. With `Cc1ccc(-n2nc3c(=O)n(CCCC(=O)NCc4cccc(Cl)c4)nc(C)c3c2C)cc1` the Potency was active: 22.4 µM. With `Cc1ccc(C)c(OCCC(=O)Nc2cccc(S(=O)(=O)NC3=NCCCCC3)c2)c1` the Potency was inconclusive: 8.91 µM [inhibitor, partial curve]. With `CC(C)Cn1c(N2CCN(C(=O)/C=C/c3ccccc3)CC2)nc2ccccc21` the Potency was inconclusive: 10 µM [inhibitor, partial curve]. For `CN1CCN(NC(=O)c2ccc(S(=O)(=O)N3CC4(C)CC3CC(C)(C)C4)cc2)CC1` (stereo unspecified), the “activity change, negative = inhibition” value was inactive: -18.1%. In the case of `Cc1ccc(C(C)(C)C)cc1S(=O)(=O)Nc1cccc(C(=O)N2CCN(c3ccccn3)CC2)c1`, the Potency is reported as inconclusive: 14.1 µM [inhibitor, single point]. For `c1ccc(-n2nnc(-c3cccnc3)n2)cc1`, the “activity change, negative = inhibition” value was inactive: -1.93%. In the case of `O=C(NNc1nc(=O)c2cccnc2s1)c1ccccc1O`, the Potency is reported as active: 3.16 µM. With `Cc1cc(C)nc(SCC(=O)Nc2ccc(S(=O)(=O)Nc3ncccn3)cc2)n1` the “activity change, negative = inhibition” value was inactive: 15.8%. In the case of `O=C(NCCC1=CCCCC1)C1CCCN(S(=O)(=O)c2cnc[nH]2)C1` (stereo unspecified), the “activity change, negative = inhibition” value is reported as inactive: 15.1%. For `CN(C(=O)CSc1nc(-c2ccccc2)c(-c2ccccc2)o1)C1CCS(=O)(=O)C1` (stereo unspecified), the Potency was inconclusive: 1.41 µM [inhibitor, full curve]. In the case of `CCn1c(O)c(C=Nc2ccccc2)n(-c2ccccc2)c1=S`, the Potency is reported as inconclusive: 5.01 µM [inhibitor, single point]. In the case of `CCOC(=O)c1sc(NC(=O)c2ccc(CC)s2)nc1C`, the Potency is reported as inconclusive: 3.98 µM [inhibitor, full curve, poor fit]. For `COc1cc(/C=C2\C(=N)N3N=C(S(C)(=O)=O)SC3=NC2=O)ccc1OC(=O)c1cccs1`, the “activity change, negative = inhibition” value was inactive: -23.8%. For `CC(=O)Nc1ccc(NC(=O)CCN2C(=O)c3ccccc3C2=O)cc1`, the “activity change, negative = inhibition” value was inactive: 14.9%. In the case of `Cc1cc(C)n(-c2nc3ccccc3nc2N2CCN(S(=O)(=O)c3cccc(C#N)c3)CC2)n1`, the Potency is reported as inconclusive: 11.2 µM [inhibitor, single point]. For `Cc1cccc(C(=O)Nc2nsc(N)n2)c1`, the Potency was inconclusive: 6.31 µM [inhibitor, partial curve]. In the case of `CC(=O)c1ccc2cccc3c2c1N=CN3C`, the “activity change, negative = inhibition” value is reported as inactive: -9.84%. With `CC1CC(=O)Nc2ccccc2N1S(=O)(=O)c1ccc(Br)cc1` (stereo unspecified) the “activity change, negative = inhibition” value was inactive: 7.08%. For `Cc1cc2cc3c(cc2nc1SCc1ccccn1)OCCO3`, the Potency was inconclusive: 10 µM [inhibitor, single point]. For `COc1ccc(Cl)cc1-c1nc(-c2ccncc2)no1`, the Potency was inconclusive: 11.2 µM [inhibitor, partial curve].
